Laboratory results as given in PubChem BioAssay (Tox21).
Where “and” joins values, the source holds several entries; their conditions need not be identical. Equal entries are not always repeated. Inconclusive results, whose numbers are uncertain, are shown with a selection of clear calls. A potency beside an inconclusive call is a rough fit, not a confirmed value. Calls of active or inactive are those of the source. Calls follow the shape of the dose curve; as a rule, active = well fitted activation curve with a large enough effect in the repeat runs; inconclusive = weak or mixed curves; inactive = no such curve, though single readings can be large or run the other way.

Assay: qHTS assay for small molecules that induce genotoxicity in human embryonic kidney cells expressing luciferase-tagged ATAD5 (AID 651632); also: nearly all actives have a fitted effect of over 15% in size
Conditions: HEK293T ATAD5-luciferase induction, 16 h; series mostly up to 83.3 µM; activation: at the top concentration
Excerpt: U.S. Tox21 Program National Center for Advancing Translational Sciences [NCATS] NIH Chemical Genomics Center [NCGC] U.S. Environmental Protection Agency [EPA] National Institutes of Environmental Health Sciences [NIEHS] National Toxicology Program [NTP] U.S. Food and Drug Administration [FDA] Tox21 Assay Overview: As cancer cells divide rapidly and during every cell division they need to duplicate their genome by DNA replication. The failure to do so results in the cancer cell death. Based on this concept, many chemotherapeutic agents were developed but have limitations such as low efficacy and severe side effects etc. A new cell based assay was developed to find the compounds that effectively block DNA replication either by directly damaging DNA or by inhibiting other cellular mechanisms. Enhanced Level of Genome Instability Gene 1 (ELG1; human ATAD5) protein levels increase in response to various types of DNA damage. Using a luciferase reporter-gene tagged with ATAD5, a cell-based assay [developed by Kyungjae Myung, NHGRI, NIH] was used to measure the induction of ATAD5 in human embryonic kidney cells (HEK293T). So, increase in luciferase activity can be used to identify the compounds that cause genetic stress.
Tox21 Assay Protocol Summary: For genotoxicity screening, 2,000 cells in 5 uL/well were dispensed into white, solid-bottom 1536-well plates using a Multidrop Combi (Thermo Scientific) dispenser. Following transfer of 23 nL compound or DMSO vehicle by a pin tool, the plates were incubated 16 hr at 37C and 5% CO2. 5 ul Amplite (AAT Bioquest, Inc.) was then added to each plate and following 30 min incubation at room temperature, luciferase activity was quantified on a ViewLux CCD-based plate reader.
% is scaled to controls: 0 for no effect and ±100 for the full control effect; potency is read from the fitted curve at half-maximal effect; tags tell the direction and shape of the fitted curve.

| SMILES | activation | Potency |
| --- | --- | --- |
| O=C(Oc1ccc(Br)cc1)N1CCN2CCC1CC2 | inactive: -1.31% | – |
| C=C[C@H]1CN2CC[C@H]1C[C@@H]2[C@@H](O)c1ccnc2ccccc12 | inactive: 5.52% | – |
| CN1C(=S)CN=C(c2ccccc2)c2cc(Cl)ccc21 | – | inconclusive: 29.8 µM [activator, partial curve] |
| CN1C(=O)CN=C(c2ccccc2)c2cc([N+](=O)[O-])ccc21 | – | inconclusive: 10.6 µM [activator, partial curve] |
| CC(C)(C)NCC(O)c1cc(Cl)c(N)c(Cl)c1 (stereo not given) | – | inconclusive: 2.37 µM [activator, full curve, poor fit] |
| COC(=O)[C@]12CCC(C)(C)C[C@H]1[C@H]1C(=O)C=C3[C@@]4(C)C=C(C#N)C(=O)C(C)(C)[C@@H]4CC[C@@]3(C)[C@]1(C)CC2 | – | inconclusive: 3.35 µM [activator, single point] |
| COC(=O)c1ccc(CBr)cc1 | – | inconclusive: 61.9 µM [activator, partial curve, poor fit] |
| CCC1C(C)=NN=C(c2ccc(OC)c(OC)c2)c2cc(OC)c(OC)cc21 (stereo not given) | – | inconclusive: 23.7 µM [activator, partial curve] |
| CNC(=O)/C=C(\C)OP(=O)(OC)OC | inactive: 3.01% | – |
| O.O.O.O=C([O-])C(O)C(O)C(=O)[O-].O=C([O-])C(O)C(O)C(=O)[O-].[K+].[K+].[Sb].[Sb] (stereo not given) | inactive: 5.16% | – |
| C(CCOCC1CO1)COCC1CO1 (stereo not given) | – | inconclusive: 67.5 µM [activator, single point] |
| CSSC | – | inconclusive: 69.4 µM [activator, partial curve, poor fit] |
| Cc1ccc(-c2nc3ccc(C)cn3c2CC(=O)N(C)C)cc1 | – | inconclusive: 13.3 µM [activator, partial curve, poor fit] |
| CC(C)OC(=O)Nc1cccc(Cl)c1 | – | inconclusive: 60.3 µM [activator, partial curve, poor fit] and inactive |
| Cc1nnc(-c2ccccc2)c(=O)n1N | inactive: 2.94% | – |
| Nc1ccc2c(c1)Cc1ccccc1-2 | – | inconclusive: 54.2 µM [activator, partial curve] |
| Cc1nnc2n1-c1sc(Br)cc1C(c1ccccc1Cl)=NC2 | – | active: 23.7 µM |
| O=C1C=C2C=C[C@@H]3C[C@@]2(O1)[C@H]1CCCCN31 | – | active: 6.68 µM |
| CCCCSP(=O)(SCCCC)SCCCC | – | inactive |
| [H+].[H+].[Hg+2].[O-]B([O-])[O-].[c-]1ccccc1 | – | inconclusive: 1.68 µM [activator, partial curve] |

| SMILES | activation | Potency |
| --- | --- | --- |
| C#CCN(C)[C@H](C)Cc1ccccc1 | – | inactive |
| Cc1cc(-c2cc(C)c(N)c(C)c2)cc(C)c1N | – | inactive |
| CNc1cnn(-c2cccc(C(F)(F)F)c2)c(=O)c1Cl | – | inconclusive: 52.5 µM [activator, partial curve] and inconclusive: 48.6 µM [activator, partial curve, poor fit] |
| CNCC(=O)c1ccc(O)c(O)c1 | – | inconclusive: 42.2 µM [activator, partial curve, poor fit] |
| COc1ccc2c(C(=O)c3ccc(Cl)cc3)c(C)n(CC(=O)O)c2c1 | inactive: 1.67% | – |
| Cc1ccc(S(=O)(=O)N[C@@H](CCCCN)C(=O)CCl)cc1 | – | inconclusive: 33.5 µM [activator] |
| COC([CH2][Hg])CNC(=O)c1ccccc1OCC(=O)O (stereo not given) | – | inconclusive: 13.3 µM [activator, partial curve] |
| COS(=O)(=O)OC | – | inactive |
| CC(Cc1ccc(O)cc1)NCC(O)c1cc(O)cc(O)c1 (stereo not given) | – | inconclusive: 9.44 µM [activator, partial curve, poor fit] |
| CC(C)CC#N | inactive: 0.451% [at 95.3 µM] | – |
| CN(C)C1CCCCC1 | – | inconclusive: 76.3 µM [activator, partial curve, poor fit] |
| CCOc1ccc(N)cc1 | – | inactive |
| NNCc1ccccc1 | – | inconclusive: 31.2 µM [activator, partial curve] |
| CCCSc1cc(OC)c(CCN)cc1OC | – | inconclusive: 9.17 µM [activator, full curve, poor fit] |
| O=C=NC1CCCCC1 | – | inconclusive: 54.6 µM [activator, partial curve, poor fit] |
| CCNc1nc(Cl)nc(NC(C)(C)C#N)n1 | – | inactive |
| CCCCCc1cc(O)c2c(c1)OC(C)(C)[C@@H]1CCC(C)=C[C@@H]21 | inactive: -10.1% | – |
| O=[N+]([O-])c1cc(Cl)c(Cl)cc1Cl | inactive: -4.5% | – |
| Cc1ncc2n1-c1ccc(Cl)cc1C(c1ccccc1F)=NC2 | – | active: 26.6 µM |
| O=P(OCCCl)(OCCCl)OCCCl | – | inactive |
